# Out of some 52,000 compounds screened, about 4,300 (8.3%) were called active. Rule as the data show it: active = survival mostly below about 52% (no sharp cut-off); inactive = mostly above about 56%. Some of the results follow.
# System: DeltatarO mutant
# Assay: S. aureus survival, RN4220 and DeltatarO strains – OD600, teichoic acid synthesis inhibitors, primary screen (AID 463173)
# Settings: S. aureus RN4220 wild type/DeltatarO growth, OD600, 18 h, hits give low values, screened at 18.75 µg/mL (by protocol)
row,SMILES,survival
1,CCC(C(=O)N1CCN(c2ccc(OC)cc2)CC1)n1nc(C)n2c(cc3occc32)c1=O (stereo not given),inactive: 117%
2,CCC(=O)Nc1ccccc1N1CCN(c2ccc(F)cc2)CC1,inactive: 89%
3,Nc1ccc(S(=O)(=O)NC2(C(F)(F)F)NC(=O)N(c3cccc(Cl)c3)C2=O)cc1 (stereo not given),inactive: 148%
4,Cc1[nH]c2ccccc2c1C(=O)C(=O)NC1CC(=O)N(c2ccccc2)C1 (stereo not given),inactive: 94%
5,Cc1cccc(-n2c(SCC(=O)Nc3ccccc3C)nc3c(oc4ccccc43)c2=O)c1,inactive: 87%
6,COC(=O)c1ccc(NC(=O)CN(c2cccc(C(F)(F)F)c2)S(C)(=O)=O)cc1,inactive: 73%
7,CCc1ccccc1N1C(=O)N(C)c2ccccc2S1(=O)=O,inactive: 84%
8,CCc1cc2c(NCC3CCCO3)ncnc2s1 (stereo not given),inactive: 84%
9,CCCCOC(=O)c1ccc(NC(=O)/C(C#N)=C/c2ccc(C)o2)cc1,active: 49%
10,CCCCNS(=O)(=O)c1ccc2nc(-c3cccnc3)cc(C(=O)NCCCOCC)c2c1,inactive: 79%
11,Cc1ccc(NC(=O)COCc2cc(-c3cccs3)on2)cc1Cl,inactive: 57%
12,O=C1COc2ccc(-c3cc(-c4ccc(F)cc4)c4c(n3)-c3ccccc3OC4)cc2N1,inactive: 105%
13,CCc1nc(SCc2ccccc2)[nH]c(=O)c1C,inactive: 93%
14,CCN(C(=O)c1ccc2c(=O)n3c(nc2c1)CCCCC3)c1cc(C)ccc1C,inactive: 89%
15,CSc1nn(Cc2ccc(F)cc2)c(N)c1S(=O)(=O)c1ccc(Cl)cc1,inactive: 101%
16,COc1cc(C2/C(=C(\O)c3ccccc3)C(=O)C(=O)N2CCC(=O)O)ccc1O (stereo not given),inactive: 56%
17,COc1cccc(CSc2nc(-c3ccccc3OC)nc3c2Cc2c(CO)cnc(C)c2O3)c1,inactive: 57%
18,CCCN(CCC)CCCNC(=O)C1CCN(S(=O)(=O)c2cccc3nsnc23)CC1,inactive: 96%
19,CCOc1ccc(S(=O)(=O)N2CCN(c3ccc(C)cc3C)CC2)c2ccccc12,inactive: 57%
20,CC(C)CCNC(=O)c1ccc2c(c1)N(C)C(=O)c1ccccc1S2,active: -5%
21,CC1CCN(S(=O)(=O)c2cn(CC(=O)Nc3ccc(F)cc3)c(=O)c3ccccc23)CC1,inactive: 70%
22,COc1ccc(N2CCN(Cc3nc(-c4ccc(C)cc4)no3)CC2)cc1,inactive: 48%
23,CCOc1cc2[nH]c(=O)n(CCCCCC(=O)NC(C)CC)c(=O)c2cc1OCC (stereo not given),inactive: 80%
24,CSc1cccc(NC(=O)CN(C)S(=O)(=O)c2ccc3c(c2)CCCN3C(C)=O)c1,inactive: 101%
25,CCCOc1cccc(C2c3c(oc4cc(C)c(C)cc4c3=O)C(=O)N2CCCN2CCOCC2)c1 (stereo not given),inactive: 64%
